± gives the standard error. This sample is rich in variants without activity.
B1: glmS ribozyme (parent)
chain: AUAAAAGCGCCAGAACUACAGAAAUGUAGUUGACGAGGAGGAGGUUUAUCGAAUUUUCGGCGGAUGCCUCCAAA

Experiments:
Details in all cases: with glucosamine-6-phosphate
glucosamine-6-phosphate [1] = variants of: B1; assay: self-cleavage kobs at 40 uM GlcN6P; higher = faster cleavage; RNA array
How it was run: (§1)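 The measurements used barcoded ribozyme variants on sequenced MiSeq chips, transcribed in situ by E. coli RNA polymerase and tracked at 37 °C with a hybridised Cy3 probe. Glucosamine-6-phosphate, 40 μM to 10 mM in HEPES/KCl/Mg(OAc)2 buffer, was flowed in while tiles were imaged over ~14 h. Baseline-normalised signals, also normalised to non-cleaving reference variants, gave per-tile medians that were fit to one- or two-exponential decays for kobs. kcat and KM resulted from weighted Michaelis–Menten fits across concentrations.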

glucosamine-6-phosphate [2] = variants of: B1; assay: self-cleavage kobs at 640 uM GlcN6P; higher = faster cleavage; RNA array
How it was run: as §1

glucosamine-6-phosphate [3] = variants of: B1; assay: self-cleavage kobs at 10000 uM GlcN6P; higher = faster cleavage; RNA array
How it was run: as §1

glucosamine-6-phosphate [4] = variants of: B1; assay: self-cleavage kobs at 160 uM GlcN6P; higher = faster cleavage; RNA array
How it was run: as §1

glucosamine-6-phosphate [5] = variants of: B1; assay: self-cleavage kobs at 2500 uM GlcN6P; higher = faster cleavage; RNA array
How it was run: as §1

Row | Variant | self-cleavage kobs at 40 uM GlcN6P (glucosamine-6-phosphate [1]) [s⁻¹] | self-cleavage kobs at 640 uM GlcN6P (glucosamine-6-phosphate [2]) [s⁻¹] | self-cleavage kobs at 10000 uM GlcN6P (glucosamine-6-phosphate [3]) [s⁻¹] | self-cleavage kobs at 160 uM GlcN6P (glucosamine-6-phosphate [4]) [s⁻¹] | self-cleavage kobs at 2500 uM GlcN6P (glucosamine-6-phosphate [5]) [s⁻¹]
1 | AUAAAAGGGCCAGAACUACAGAAAUGUAGUUGAUGAGGAGGAGGUUUAUCGAAUUGUCGGCGGAUGCCUCCAAA | < 1e-05 | < 1e-05 | < 1e-05 |  | 
2 | AUAAAAGGGCCAGAACUACAGAAAUGUAGUUGACGAGGAGGAGGUUUAUCGAAUUUUCGGCGGAUGACUCCAAA | < 1e-05 | < 1e-05 | < 1e-05 | < 1e-05 | < 1e-05
3 | AUAAAAGGGCCAGAACUACAGAAAUGUAGUUGACGAGGAGGAUGUUUAUCGAAUUUUCGGCGGAAGCCUCGAAA | < 1e-05 |  |  |  | 
4 | AUAAAAGGGCCAGAACUACAGAAAUGUAGUUGACGAGGAGGAAGUUUAUCGAAUUUUCAUCGGAUGCCUCCAAA | < 1e-05 |  |  |  | 
5 | AUAAAAGGGCCAGAACUACAGAAAUGUAGUUGACGAGGAGGAGGUUUAUCGAAUUUUCGGCGGCUGCCUCCAAA | < 1e-05 |  | < 1e-05 | < 1e-05 | < 1e-05
6 | AUAAAAGGGCCAGAACUACAGAAAUGUAGUUCACGAGGAUGAGGUUUAUCGAAUUUUCGGCGGAUGCCUCCAAA | < 1e-05 |  | < 1e-05 |  | < 1e-05
7 | AUAAAAGGGCCAGAACUACAGAAAUGUAGUUGACGAGGAUGAGGUUUAUCGAAUUUUCGGCUGAUGCCUCCAAA | < 1e-05 |  | < 1e-05 |  | 
8 | AUAAAAGGGCCAGAACUACAGAAAUGUAGUUGACGAGGAGGAGGUUUAUCGAAUUUUCGGUGGAUGCCUCCAAA | < 1e-05 | < 1e-05 | < 1e-05 | < 1e-05 | < 1e-05
9 | AUAAAAGGGCGAGAACUACAGAAAUGUAGCUGAGGAGGAGGAGUUUUAUCGAAUUUUCGGCAGAUGCCUCCAAA | < 1e-05 |  |  |  | 
10 | AUAAAAGGGCCAGAAUUACAGAAAUGUAGUUGACGAGGAGGAGGUUUAUCGAAUGUUCGGCGGUUGCCUCCAAA | < 1e-05 |  | < 1e-05 |  | 
11 | AUAAAAGGACCAGAACUACAGAAAUGUAGUUGACGAGGAGGAGGUUUAUCGAAUUUUCGGCGGAUGCCUCCAAA | < 1e-05 |  |  |  | < 1e-05
12 | AUAAAAGGGCCAGAACUACAGAAAUGUAGUUGACGAGGAGGAGGUUUAUCGAAUUUUCGGCGGAUGCAUCCAAA | < 1e-05 | < 1e-05 | < 1e-05 | < 1e-05 | < 1e-05
13 | AUAAAAGGGCCAGAACUACAGAAAUGUAGUUGACGAGGAGGAGGUUUAUGGAAUUUUCGGCGGAUGACUCCAAA | 0.000144 ± 2.5e-05 |  | 0.000113 ± 1.8e-05 |  | 
14 | AUAAAAGGGCCACAACUACAGAAAUGUAGUUGACGAGGAGGAGGUUUAUCGAAUUUUCGGCGGAUGCCUCCAAA | < 1e-05 | < 1e-05 | < 1e-05 | < 1e-05 | < 1e-05
15 | AUAAAAGGGCCAGAACUACAGAAAUGUAGUUGACGAAGAGGUGAUUUAUCGAAUUUUCGGCGGAUGCCUCCAAA | < 1e-05 | < 1e-05 |  |  | 
16 | AUAAAAGGGCCAGAACUACAGAAAUGUAGUUGACGAGGAGGAGGUUUAUCGAAUUUUCGUCGGAUGCCUCCAAA | < 1e-05 |  | < 1e-05 | < 1e-05 | < 1e-05
17 | AUAAAAGGGCCAAAACUACAGAAAUGUAGUUGACCAGGAGGAGGUUUAUCAAAUUUUCGGCGGAUGCCUCCAAA | < 1e-05 |  | < 1e-05 |  | < 1e-05
18 | AUAAAAGGGCCAGAACUACAGAAAUGUAGUUGACGAGGAGGAGGUUUAUCUAAUUUUCGGCGGGUGCCUCCAAA | < 1e-05 |  |  |  | 
19 | AUAAAAGGGCCAGAACUACAGAAAUGUAGUUCACGAGGAGGAGGUUUAUCGAAUUUUCGGCUGAUGCCUCCAAA | < 1e-05 |  | < 1e-05 |  | 
20 | AUAAAAGGGCCACAACUACAGAAAUGUAGUGAACGAGGAGGAGGUUUAUCGAAUUUUCGGCGGAUUCCUCCAAA | < 1e-05 |  | < 1e-05 |  | < 1e-05
21 | AUAAAAGGGCCAGAAAUACAGAAAUGUAGUUGACGAGGAGGAGGUUUAUCCAAUUUUCGGUGGAUGCUUCCAAA | < 1e-05 | < 1e-05 |  |  | 
22 | AUAAAAGGUUCAGAACUACAGAAAUGUAGUUGACGAGGAGGAGGUUUAUCGAAUUGUCGGCGGAUGCCUCCAAA | < 1e-05 |  |  |  | 
23 | AUAAAAGGGCCAGAACUACAGAAAUGUAGUUGACGAGGAGCAGGUUUAUCGAAUUUUCGGCGGAUGCCUCCAAA | < 1e-05 | < 1e-05 | < 1e-05 | < 1e-05 | < 1e-05
24 | AUAAAAGGGCCAGAACUACAGAAAUGUAGUUGACGAGGAGGAGGUUUAUCCAAUUUUCGGCGGAUGCCUCCAAA | < 1e-05 | < 1e-05 | < 1e-05 |  | 
25 | AUAAAAGGGCCAUAACUACAGAAAUGUAGUUGACGAGGAGGAGGUUUAUCCAAUUUUCGGCGGGUGCCUCCAAA | < 1e-05 |  |  |  | 
26 | AUAAAAGGGCCAGAACUACAGAAAUGUAGUUCACGAGGAGGAGGUUUAUCGAAUUUUCGGCGGAUGCCUCCAAA | < 1e-05 |  |  | < 1e-05 | < 1e-05
27 | AUAAAAGGGCCAGAACUACAGAAAUGUAGUUAACGAGGAGGAGGUUUAUCGAAUUUUCGGCGGAUGCCUCCAAA | < 1e-05 | < 1e-05 | < 1e-05 | < 1e-05 | < 1e-05
28 | AUAAAAGGGCCAUAACUACAGAAAUGUAGUCGACGAGGAGGAGGUUUAUCGAAUUUUCGGCGGAUGCCUUCAAA | < 1e-05 |  |  |  | 

Reference: the supplement of paper PMC7125110
